Assay results reported in PubChem BioAssay AID1466 (National Center for Advancing Translational Sciences (NCATS), 2008).
Hit rate of the full screen: of about 200,000 compounds, about 10 (0.005%) were called active. Inconclusive means that the source gave no clear call. Such entries were picked first, then a sample of the others. Calls come from the whole dose curve; as a rule, active = well fitted inhibition curve with a large enough effect; inconclusive = small, poorly fitted or top-dose-only effect, or effect the other way, or another doubt; inactive = no such curve, though single readings can be large or run the other way. Where the call is inconclusive, the potency comes from a doubtful curve fit.

molecular target: Lysosomal alpha-glucosidase (Homo sapiens) (UniProt P10253); assay: qHTS Assay for Inhibitors of Human alpha-Glucosidase as a Potential Chaperone Treatment of Pompe Disease; conditions: purified human GAA, 4-MU-alpha-glucoside fluorescence; activity change, negative = inhibition: at 76.9 µM (top of the series) unless noted;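 for activity change, negative = inhibition: plate controls were uninhibited enzyme wells for no effect and no-enzyme background for full effect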
Summary of the method: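 Compounds are titrated up to 77 uM against 4 nM human enzyme. Substrate 4-methylumbelliferyl-alpha-D-pyranoside (400 uM) reacts 20 min at room temperature in pH 5.0 buffer; liberated 4-methylumbelliferone is read at 440 nm.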
Potency is the fitted concentration of half-maximal effect; tags give direction and shape of the fitted curve.

Potency, inconclusive:
COc1ccc(-c2cc(=Nc3c(C)n(C)n(-c4ccccc4)c3=O)c3ccccc3o2)cc1 35.5 µM [activator, partial curve]
COC(=O)C1=C(CN2CCc3ccccc32)NC(=O)NC1c1cc(C)ccc1C (stereo not drawn) 28.2 µM [inhibitor, partial curve]
Cc1cc([N+](=O)[O-])nn1CC(=O)NCc1ccco1 7.94 µM [inhibitor, single point]
O=C1OC(c2ccc(Cl)cc2)=N/C1=C\c1cccnc1 56.2 µM [inhibitor, single point]
CN1C(=O)C(O)(CC(=O)c2ccc3c(c2)OCO3)c2ccccc21 (stereo not drawn) 50.1 µM [inhibitor, partial curve]
CCN(CCCNS(=O)(=O)c1ccc2c(c1)CCN2C(C)=O)c1cccc(C)c1 20 µM [inhibitor, partial curve]
Cc1cc(C(C)c2ccccc2)c(O)c(CN2CCOCC2)c1C (stereo not drawn) 15.8 µM [inhibitor, partial curve]
O=C(COc1ccc(Cl)cc1)NCc1nnc(SCC(=O)NCCc2ccccc2)o1 56.2 µM [inhibitor, partial curve, poor fit]
Cc1cccc(N2C(=O)CC(NNc3nc4ccccc4s3)C2=O)c1 (stereo not drawn) 50.1 µM [inhibitor, single point]
Cc1ccc(OCc2n[nH]c(=S)n2Cc2ccccc2)cc1 0.631 µM [inhibitor, partial curve]
CC(=O)Oc1ccc2c(C)cc(=O)[nH]c2c1 20 µM [activator, partial curve]
Cc1nn(C)cc1C(C(=O)NC1CCCCC1)N(C(=O)Cc1cccs1)c1ccc(F)cc1 (stereo not drawn) 56.2 µM [activator, single point]
C/C(=N\NC(=O)c1cc(C)nc2ccccc12)c1ccc([N+](=O)[O-])cc1 56.2 µM [inhibitor, single point]
CCN(CC)c1ccc(/C=N/NC(=O)c2ccco2)cc1 50.1 µM [inhibitor, single point]
O=C(c1ccc2nc(N3CCOCC3)sc2c1)N1CCC(Cc2ccccc2)CC1 20 µM [inhibitor, partial curve, poor fit]
CC(=O)Nc1ccc(Nc2cc(C)nc3c(-c4ccccc4)c(C)nn23)cc1 15.8 µM [inhibitor, partial curve]
COc1cc(-c2nc3ccc(N4CCN(C)CC4)cc3[nH]2)cc(OC)c1OC 50.1 µM [activator, partial curve]
Cn1cc(CC(=O)NCCCN2CCCC2)c2ccccc21 28.2 µM [inhibitor, single point]
O=C(Nc1ccc(S(=O)(=O)Nc2ncccn2)cc1)c1ccc2ncsc2c1 44.7 µM [inhibitor, single point]
O=C1CCCc2c1[nH]c1ccc(Cl)cc21 0.178 µM [inhibitor, full curve, poor fit]
Cc1nnc(Nc2ccc3c(c2)ncn3C)c2ccccc12 56.2 µM [inhibitor, single point]
COc1cc2nc(C3CCC3)nc(N3CCN(c4ccccn4)CC3)c2cc1OC 7.94 µM [inhibitor, partial curve, poor fit]
COc1ccc(CCNC(=O)CSc2nc(O)c(CCC(C)C)c(=O)[nH]2)cc1OC 56.2 µM [inhibitor, single point]
Cc1ccccc1NC(c1cccc(Cl)c1)c1nnnn1C1CCCCC1 (stereo not drawn) 6.31 µM [inhibitor, single point]
Cc1cc(Nc2ccc(F)cc2F)n2nc(C)nc2n1 10 µM [inhibitor, partial curve]
CCOC(=O)Nc1cccc(OCC(=O)Nc2ccc(OC)cc2OC)c1 10 µM [inhibitor, single point]
Cc1nc2ccccc2cc1O 35.5 µM [activator, partial curve]
O=C(CS(=O)Cc1ccccc1Cl)Nc1ccccc1Cl (stereo not drawn) 50.1 µM [inhibitor, single point]
FC(F)Oc1ccc(NC(=S)NCc2ccccc2)cc1 50.1 µM [inhibitor, partial curve, poor fit]
Oc1ccc2ccccc2c1CN1CCCC1 1.12 µM [activator, partial curve]
CCOC(=O)c1c(NC(=O)c2nn(CC)cc2Br)sc(C)c1C 50.1 µM [activator, single point]
COCc1cc(C)nc(NCCc2ccccc2)c1C#N 50.1 µM [activator, single point]

Activity change, negative = inhibition, inactive:
Cc1cccn2c(=O)c(C=O)c(N3CCCCCC3)nc12 -3.35%
COC(=O)Cc1c(C)nc2nc(Cc3ccccc3)[nH]n2c1=O 2.96%
Oc1cnn(-c2ccccc2)c1 4.18%
CC(C)C(C)(C#N)NC(=O)CSc1nc2scc(-c3ccco3)c2c(=O)n1-c1ccccc1 (stereo not drawn) 4.5%

Activity change, negative = inhibition, inconclusive:
CCN(CC)c1c([N+](=O)[O-])c(=O)oc2ccccc12 17.5% [activator]
Cc1cc(-n2c(C)cc(C(=O)CN3C(=O)NC4(CCCCC4)C3=O)c2C)no1 -18.4% [inhibitor]
Cc1ccc(C(=O)COC(=O)CNC(=O)c2cccs2)cc1C 15.8% [activator]
Cc1ccc(NC(=S)NCC2CCCO2)cc1 (stereo not drawn) -18.2% [inhibitor]
CN(C(=O)CSC1=Nc2ccccc2C2=NC(c3ccccc3)C(=O)N12)C1CCCCC1 (stereo not drawn) 25.7% [activator]
COC(=O)CCC(=O)Nc1nnc(C(F)(F)F)s1 15.8% [activator]
COc1ccccc1OCc1ccc(C(=O)Nc2ccc(Cl)cn2)o1 -18.1% [inhibitor]
